Assay results reported in article PMC1363732.
Results are given in words; binding and its absence hold for the method and conditions named. Binding seen in cells or lysates may run through a third protein. Some entries that bind do so weakly or less than the wild type. Where a sequence is shown, tags or fusion partners need not be part of it.

Molecular target: wild type HTLV-1 Tax (pCG-Tax) (HTLV-1) (UniProt P03409)
Assay: co-IP; HEK293T cells co-transfected with GST-SUV39H1 or GST and Tax; lysate in TNE buffer (10 mM Tris-HCl pH 7.8, 1% Nonidet P-40, 150 mM NaCl, 1 mM EDTA) immunoprecipitated with anti-Tax Lt-4; immunoblot with anti-SUV39H1 or anti-GST

B1: GST-tagged SUV39H1 (pMEG-SUV39H1) (enzyme, UniProt O43463 1-412)
chain: MAENLKGCSVCCKSSWNQLQDLCRLAKLSCPALGISKRNLYDFEVEYLCDYKKIREQEYYLVKWRGYPDSESTWEPRQNLKCVRILKQFHKDLERELLRRHHRSKTPRHLDPSLANYLVQKAKQRRALRRWEQELNAKRSHLGRITVENEVDLDGPPRAFVYINEYRVGEGITLNQVAVGCECQDCLWAPTGGCCPGASLHKFAYNDQGQVRLRAGLPIYECNSRCRCGYDCPNRVVQKGIRYDLCIFRTDDGRGWGVRTLEKIRKNSFVMEYVGEIITSEEAERRGQIYDRQGATYLFDLDYVEDVYTVDAAYYGNISHFVNHSCDPNLQVYNVFIDNLDERLPRIAFFATRTIRAGEELTFDYNMQVDPVDMESTRMDSNFGLAGLPGSPKKRVRIECKCGTESCRKYLF
binding: binds
